The source of these data is patent publication US11618753B2 (priority 2018, dated 2023).

This experiment deals with MLKL phosphorylation, HT29-L23 human colorectal adenocarcinoma cells. The experiment in a line: cells. Conditions: read-out: pMLKL HCS Cell Assay (IC50, uM).
`COc1ncc(-c2c(C#N)cc3c(N)ncnn23)cc1C(=O)N[C@@H]1CN(C(=O)C2CC(O)(C(F)(F)F)C2)C[C@@H]1F` (stereo partly drawn) [Example 559, 5-(4-amino-6-cyanopyrrolo[2,1-f][1,2,4]triazin-7-yl)-N-((3R,4S)-4-fluoro-1-(3-hydroxy-3-(trifluoromethyl)cyclobutane-1-carbonyl)pyrrolidin-3-yl)-2-methoxynicotinamide]: the IC50 (in general, the concentration needed to halve the response being measured) is 4.45 µM. As to `Cc1ccc(-c2cc(CN3CCC(F)(F)CC3)c3c(N)ncnn23)cc1C(=O)N[C@@H]1CN(C(=O)C2CC(F)(F)C2)C[C@@H]1F` [Example 1641, 5-{4-amino-5-[(4,4-difluoropiperidin-1-yl)methyl]pyrrolo[2,1-f][1,2,4]triazin-7-yl}-N-[(3R,4S)-1-(3,3-difluorocyclobutanecarbonyl)-4-fluoropyrrolidin-3-yl]-2-methylbenzamide], the IC50 was 0.00043 µM. As to `Cc1ccc(-c2cc(CN3CCOCC3)c3c(N)ncnn23)cc1C(=O)N[C@@H]1CN(C(=O)OCC(F)(F)F)C[C@@H]1F` [Example 1577, 2,2,2-trifluoroethyl (3R,4S)-3-(5-{4-amino-5-[(morpholin-4-yl)methyl]pyrrolo[2,1-f][1,2,4]triazin-7-yl}-2-methylbenzamido)-4-fluoropyrrolidine-1-carboxylate], the IC50 was determined as 0.00045 µM. For the molecule `Cc1cc(C)c(-c2cc(C(F)(F)F)c3c(N)ncnn23)cc1C(=O)N[C@@H]1CN(C(=O)C2CCC(F)(F)C2)C[C@@H]1F` (stereo partly drawn) [Example 536, 5-[4-amino-5-(trifluoromethyl)pyrrolo[2,1-f][1,2,4]triazin-7-yl]-N-[(3R,4S)-1-(3,3-difluorocyclopentanecarbonyl)-4-fluoropyrrolidin-3-yl]-2,4-dimethylbenzamide], the concentration for half-maximal inhibition (IC50) worked out at 0.036 µM.

For the molecule `CCc1ccc(-c2cc(C(F)(F)F)c3c(N)ncnn23)cc1C(=O)N[C@@H]1CN(C(=O)CC(C)C(F)(F)F)C[C@@H]1F` (stereo partly drawn) [Example 971, 5-[4-amino-5-(trifluoromethyl)pyrrolo[2,1-f][1,2,4]triazin-7-yl]-2-ethyl-N-[(3R,4S)-4-fluoro-1-(4,4,4-trifluoro-3-methylbutanoyl)pyrrolidin-3-yl]benzamide], the IC50 is 0.0029 µM.

On to `COc1ncc(-c2cc(C(F)(F)F)c3c(N)ncnn23)cc1C(=O)NC1CN(Cc2ccc(F)c(C)c2)CC1F` (racemic) [Example 235, 5-[4-amino-5-(trifluoromethyl)pyrrolo[2,1-f][1,2,4]triazin-7-yl]-N-{4-fluoro-1-[(4-fluoro-3-methylphenyl)methyl]pyrrolidin-3-yl}-2-methoxypyridine-3-carboxamide], for which the IC50 is 0.025 µM. Consider `Cc1cc(F)c(-c2cc(C(F)(F)F)c3c(N)ncnn23)cc1C(=O)N[C@@H]1CN(C(=O)c2ccncc2)C[C@@H]1F` [Example 829, 5-[4-amino-5-(trifluoromethyl)pyrrolo[2,1-f][1,2,4]triazin-7-yl]-4-fluoro-N-[(3R,4S)-4-fluoro-1-(pyridine-4-carbonyl)pyrrolidin-3-yl]-2-methylbenzamide], for which the half-maximal inhibitory concentration (IC50) was 0.0072 µM. `Cc1cc(-c2cc(C(F)(F)F)c3c(N)ncnn23)cc(C(=O)N[C@@H]2CN(C(=O)C(C)(C)O)C[C@@H]2F)c1Cl` [Example 707, 5-[4-amino-5-(trifluoromethyl)pyrrolo[2,1-f][1,2,4]triazin-7-yl]-2-chloro-N-[(3R,4S)-4-fluoro-1-(2-hydroxy-2-methylpropanoyl)pyrrolidin-3-yl]-3-methylbenzamide]: the concentration for half-maximal inhibition (IC50) came out at 0.036 µM.

In the case of `COc1ncc(-c2cc(C(F)(F)F)c3c(N)ncnn23)cc1C(=O)NC[C@H]1C[C@@H]1c1cc(C(F)(F)F)cc(C(F)(F)F)c1` [Example 118, 5-[4-amino-5-(trifluoromethyl)pyrrolo[2,1-f][1,2,4]triazin-7-yl]-N-{[(1S,2S)-2-[3,5-bis(trifluoromethyl)phenyl]cyclopropyl]methyl}-2-methoxypyridine-3-carboxamide], the IC50 was determined as 0.402 µM. Take `COc1ncc(-c2cc(C(F)(F)F)c3c(N)ncnn23)cc1C(=O)N[C@@H]1CN(S(=O)(=O)CC(F)(F)F)C[C@@H]1F` [Example 1467, 5-[4-amino-5-(trifluoromethyl)pyrrolo[2,1-f][1,2,4]triazin-7-yl]-N-[(3R,4S)-4-fluoro-1-(2,2,2-trifluoroethanesulfonyl)pyrrolidin-3-yl]-2-methoxypyridine-3-carboxamide]: the IC50 was 0.016 µM. The value for `COc1ncc(-c2cc(CN3CCC(F)(F)CC3)c3c(N)ncnn23)cc1C(=O)N[C@@H]1CN(C(=O)OC2(C(F)(F)F)CCC2)C[C@@H]1F` [Example 1511, 1-(trifluoromethyl)cyclobutyl (3R,4S)-3-(5-{4-amino-5-[(4,4-difluoropiperidin-1-yl)methyl]pyrrolo[2,1-f][1,2,4]triazin-7-yl}-2-methoxypyridine-3-amido)-4-fluoropyrrolidine-1-carboxylate] was 0.006 µM; that for `Nc1ncnn2c(-c3cc(C(=O)N[C@@H]4CN(C(=O)C5CC5(F)F)C[C@@H]4F)c(Cl)cc3F)cc(C(F)(F)F)c12` (stereo partly drawn) [Example 408, 5-[4-amino-5-(trifluoromethyl)pyrrolo[2,1-f][1,2,4]triazin-7-yl]-2-chloro-N-[(3R,4S)-1-(2,2-difluorocyclopropanecarbonyl)-4-fluoropyrrolidin-3-yl]-4-fluorobenzamide] was 0.012 µM.

In the case of `COc1ncc(-c2cc(CN3CCC[C@H]3C(F)(F)F)c3c(N)ncnn23)cc1C(=O)N[C@@H]1CN(C(=O)[C@@](C)(O)C(F)(F)F)C[C@@H]1F` [Example 1585, 5-(4-amino-5-{[(2S)-2-(trifluoromethyl)pyrrolidin-1-yl]methyl}pyrrolo[2,1-f][1,2,4]triazin-7-yl)-N-[(3R,4S)-4-fluoro-1-[(2R)-3,3,3-trifluoro-2-hydroxy-2-methylpropanoyl]pyrrolidin-3-yl]-2-methoxypyridine-3-carboxamide], the IC50 amounted to 0.0016 µM. To `COc1ccc(-c2cc(C(F)(F)F)c3c(N)ncnn23)cc1C(=O)Nc1cnn(Cc2ccccc2)c1` [Example 65, 5-[4-amino-5-(trifluoromethyl)pyrrolo[2,1-f][1,2,4]triazin-7-yl]-N-(1-benzyl-1H-pyrazol-4-yl)-2-methoxybenzamide] belongs 0.0035 µM; to `COc1ncc(-c2cc(C(F)(F)F)c3c(N)ncnn23)cc1C(=O)N[C@@H]1CN(CC(O)CF)C[C@@H]1F` (stereo partly drawn) [Example 1830, 5-(4-amino-5-(trifluoromethyl)pyrrolo[2,1-f][1,2,4]triazin-7-yl)-N-((3R,4S)-4-fluoro-1-(3-fluoro-2-hydroxypropyl)pyrrolidin-3-yl)-2-methoxynicotinamide], 0.234 µM. As for `Cc1ccc(-c2cc(CN3CCC(F)(F)CC3)c3c(N)ncnn23)cc1C(=O)N[C@@H]1CN(C(=O)C(C)(C)C(F)(F)F)C[C@@H]1F` [Example 1645, 5-{4-amino-5-[(4,4-difluoropiperidin-1-yl)methyl]pyrrolo[2,1-f][1,2,4]triazin-7-yl}-N-[(3R,4S)-4-fluoro-1-(3,3,3-trifluoro-2,2-dimethylpropanoyl)pyrrolidin-3-yl]-2-methylbenzamide], the half-inhibitory concentration (IC50) was determined as 0.0025 µM. For `Cc1cc(F)c(-c2cc(C(F)(F)F)c3c(N)ncnn23)cc1C(=O)N[C@@H]1CN(C(=O)c2ccc(F)c(F)c2)C[C@@H]1F` [Example 814, 5-[4-amino-5-(trifluoromethyl)pyrrolo[2,1-f][1,2,4]triazin-7-yl]-N-[(3R,4S)-1-(3,4-difluorobenzoyl)-4-fluoropyrrolidin-3-yl]-4-fluoro-2-methylbenzamide], the IC50 was 0.0043 µM.
